From PubChem BioAssay AID1508623 (National Center for Advancing Translational Sciences (NCATS), 2021)
Screen size: about 48,000 compounds; about 450 (0.94%) were called active. Another 19% or so got no clear call; they are omitted. Calls follow the shape of the dose curve; as a rule, active = well fitted inhibition curve with a large enough effect; inconclusive = small, poorly fitted or top-dose-only effect; inactive = no such curve, though single readings can be large or run the other way. This is one part of the list.

Experiment: Primary qHTS for Identification of Small Molecule Inhibitors of Huntingtin Promoter Activity; also: nearly all actives have a fitted effect of over 50% in size
Details: HEK293 HTT promoter firefly luciferase reporter (activity 0% = vehicle and -100% = no light), 24 h; series mostly up to 57.5 µM; activity change, negative = inhibition: at the top concentration
How it was run: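 Quantitative HTS used concentration series of up to 57.5 uM final on HEK293 luciferase reporter cells, 24 h at 37 degrees C. Readout was Dual-Glo firefly luminescence.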

Activity change, negative = inhibition, inactive:
CCc1ccccc1NC(=O)Nc1cc(C(=O)NCc2ccc(OC)cc2)ccc1N1CCCC1 -7.59%
Cc1noc(C)c1S(=O)(=O)N1CCCC(C(=O)Nc2ccc(C(C)C)cc2)C1 (configuration not stated) 3.28%
O=C(c1ccccc1)n1nc(-c2ccco2)nc1NCc1ccccc1Cl -0.923%
COc1cc(NS(=O)(=O)c2ccc(N)cc2)ncn1 4.44%
CCOc1ccc(CCNC(=O)C2CCC(CNS(=O)(=O)c3ccc(Cl)cc3)CC2)cc1OCC (configuration not stated) -20.6%
COc1cccc(-n2cc(C(=O)Nc3cc(C)c(Cl)cc3OC)c3ccccc3c2=O)c1 -20.9%
CCOc1ccc(CNC(=O)C2CCN(c3nn4c(=O)cc(C)nc4s3)CC2)cc1 -14.9%
CO[C@H]1C=CO[C@@]2(C)Oc3c(C)c(O)c4c(O)c(c(C=NN5CCN(C)CC5)c(O)c4c3C2=O)NC(=O)C(C)=CC=C[C@H](C)[C@H](O)[C@@H](C)[C@@H](O)[C@@H](C)[C@H](OC(C)=O)[C@H]1C -4.23% [at 19.1 µM]
CC1(C)O[C@@H]2C[C@H]3[C@@H]4C[C@H](F)C5=CC(=O)C=C[C@]5(C)[C@@]4(F)[C@@H](O)C[C@]3(C)[C@]2(C(=O)CO)O1 7.82%
CCOCCCNC(=O)c1cc2c(=O)[nH]c3ccccc3c2n1C 8.18%
CCCCOC(=O)c1ccc(Nc2nnc(-n3nc(C)cc3C)c3ccccc23)cc1 -23.1%
Cc1nnc2c3ccccc3nc(Nc3cccc(O)c3)n12 5.99%
O=C(NC1CC(=O)N(c2ccc(Cl)cc2)C1)c1ccc(S(=O)(=O)N2CCOCC2)cc1 (configuration not stated) -28.2%
COc1cc(C2C(C(=O)Nc3ccccc3)=C(C)Nc3nnnn32)cc(OC)c1OC (configuration not stated) -8.18%
COc1ccc(-c2noc(CN(C(=O)c3cc(OC)c(OC)cc3OC)C(C)C)n2)cc1 -19.9%
CCOc1ccc2nc(N3CCCC(C(=O)NCc4ccccc4OC)C3)sc2c1 (configuration not stated) 27.7%
Cc1ccc(Cl)cc1NC(=O)C1CCN(c2nc3ccccc3n3cccc23)CC1 0.876%
CCCn1c2ccccc2c2cnn(CC(=O)NCCc3ccc(C)cc3)c(=O)c21 -9.19%
CCOc1ccc(S(=O)(=O)Nc2cc(Cl)ccc2OC)c2cccnc12 -28.3%
Cc1nc(C(=O)NCC(=O)O)c(O)c2ccc(Oc3ccccc3)cc12 5.1%
Cc1ccc(/C=C/c2onc(C)c2S(=O)(=O)N2CCC(C(=O)Nc3cc(F)ccc3F)CC2)cc1 -11%
CC(=O)Nc1ccn(C2COC(COC(=O)c3ccccc3)O2)c(=O)n1 (configuration not stated) -9.35%
COc1ccc(Nc2oc(/C=C/c3ccc(OC)c(OC)c3)nc2C#N)cc1 -3.83%
COCCn1c(=O)[nH]c2cc(C(=O)Nc3cccc(C(C)=O)c3)ccc2c1=O 0.186%
CCc1nn(CC(=O)NCCCOC)c(=O)c2cc3ccccc3n12 3.85%
Cc1cc(C)c2oc(C(=O)Nc3ccc(S(=O)(=O)Nc4nccc(C)n4)cc3)cc(=O)c2c1 -20.6%
Cc1cc(C)cc(-n2ccn(Cc3ccc(F)cc3)c(=O)c2=O)c1 -24.7%
CCCn1c(CCC(=O)Nc2ccccc2OC)nc2cccnc21 -6.81%
COc1ccc2oc(-c3cccc(NC(=O)c4sc5c([N+](=O)[O-])cccc5c4Cl)c3)nc2c1 -10.5%
Cc1cccc(C)c1Nc1c(-c2ccc(O)cc2)nc2sccn12 -13.3%
O=c1c2sc3ccccc3c2n(Cc2cccc(C(F)(F)F)c2)c(=O)n1Cc1ccc(F)cc1 -11.3%
COc1ccc(NC(=O)CC2C(=O)N(c3cccc(OC)c3)C(=O)N2Cc2ccc3c(c2)OCO3)cc1 (configuration not stated) -6.14%
COc1cccc2c1C(=O)c1c(O)c3c(c(O)c1C2=O)C[C@@](O)(C(=O)CO)C[C@@H]3O[C@H]1C[C@H](N)[C@H](O[C@@H]2CCCCO2)[C@H](C)O1 -28.6%
Cc1ccc(CNC(=O)CCCN2C(=O)COc3ccc(C)cc32)cc1 -1.6%
Cc1cccc(NC(=O)C(=O)NCCc2csc(-c3ccc(C(F)(F)F)cc3)n2)c1C 4.42%
O=C(CC1N=C2c3ccccc3N=C(SCC(=O)Nc3ccccc3F)N2C1=O)NCc1cccs1 (configuration not stated) 2.72%
Cc1ccc(NC(=O)c2c(NC(=O)c3ccccc3)sc3c2CCC3)cc1 20.4%
CC1CCc2c(sc(NC(=O)c3cc(-c4ccc(F)cc4)on3)c2C(N)=O)C1 (configuration not stated) 0.39%
Cc1ccc2sc(N(Cc3cccnc3)C(=O)C3COc4ccccc4O3)nc2c1C (configuration not stated) -3.86%
CCc1ccc(CN(C(=O)c2cc(=O)c3ccc(C)cc3o2)C2CCS(=O)(=O)C2)cc1 (configuration not stated) -20.4%
CC(C)Cn1c(=O)c2sccc2n2c(CCCC(=O)NC3CCCCC3)nnc12 -16.5%
COc1cccc(CNC(=O)CCCn2nc(C)c3c(C)n(-c4ccc(C)cc4)nc3c2=O)c1OC -26%
CCN(CC)CCNC(=O)c1ccc(-n2c(-c3ccccc3)cc3c2CCCC3)cc1 9.68%
COc1ccc(CNC(=O)Cn2nc(C)c3c(C)n(-c4ccccc4)nc3c2=O)cc1OC -14.3%
CCCCc1ccc(NC(=O)C2(C)Cc3ccccc3C(=O)O2)cc1 (configuration not stated) -21.2%
CCc1ccc(C2CC(=O)Oc3c2c(=O)n(C)c2ccccc32)cc1 (configuration not stated) -17.3%
COc1ccc(N(C)C(=O)c2cc(S(=O)(=O)N3CCc4ccccc43)cn2C)c(OC)c1 -27.1%
Cc1cccc(-c2nc(C(N)=O)c3c(n2)n(-c2ccc4c(c2)OCO4)c(=O)n3C)c1 -3.9%
Cc1cc(C)cc(NC(=O)Cn2cc(C(=O)c3ccccc3)c(=O)c3ccc(C)nc32)c1 0.35%
CCOC(=O)CSc1nc2ccc(NC(=O)COc3ccccc3C)cc2s1 6.17%
COC(=O)CN1C(=O)C(O)(CC(=O)c2ccc(F)cc2)c2ccccc21 (configuration not stated) -6.49% [at 11.5 µM]
Cc1ccc(-n2c3nc(=O)[nH]c(=O)c-3cc3c(C)nn(-c4ccccc4)c32)c(C)c1 -6.81%
Cc1ccc(Cl)cc1NC(=O)CCS(=O)(=O)c1ccc2c(c1)n(C)c(=O)c(=O)n2C -5.53%
O=C(Nc1ccc(Cl)cc1)c1cc2c(-c3ccccc3)nn(-c3ccccc3)c2s1 -3.09%
Cc1nn(CC(=O)N2CCCCC2)c(=O)c2cc3occc3n12 -4.38%
CC(C)Cn1cc(NC(=O)NCc2ccccc2Cl)c2ccccc2c1=O -6.42%
CC(NC(=O)C1CCN(S(=O)(=O)c2ccc3nc4c(c(C(=O)O)c3c2)CCCC4)CC1)c1ccccc1 (configuration not stated) -14.8%
Cc1ccc(NC(=O)CCS(=O)(=O)c2cc(Br)cc3c2N(C(=O)C2CC2)CC3)cc1 -9.46%
O=C(CSc1oc(-c2ccccc2)nc1S(=O)(=O)c1ccccc1)c1ccccc1 -28.7%
Cc1ccc2nc(NCCc3ccccc3)c3nncn3c2c1 8.04%
Cc1nn(-c2ccccc2)c(OC(=O)C(C)(C)C)c1Sc1ccccc1 -3.25%
O=c1oc2ccccc2cc1-c1cn2cc(Cc3ccccc3F)sc2n1 29%
CCn1c(=O)cc(OCC(=O)Nc2ccc(C)c(F)c2)c2ccccc21 -6.17%
COCCn1c(=N)c(C(=O)NCc2ccco2)cc2c(=O)n3cc(C)ccc3nc21 -3.69%
COC(=O)c1cc(NS(=O)(=O)c2cc(Br)cc3c2N(C(C)=O)CC3)cc(C(=O)OC)c1 -5.12%
Cc1nnc(NC(=O)C(=O)c2cc(C)n(-c3ccc(C)c(C)c3)c2C)s1 -19.9%
Cc1cccc(-n2c(=O)c3c(c4cc(C)ccc4n3C)n(CC(=O)Nc3ccc(C)cc3C)c2=O)c1 -15.9%
Cc1ccc(C(=O)Nc2ccc3oc(-c4ccncc4)nc3c2)c(Cl)c1 -17.3%
CCc1ccc(-n2c(=O)c3cccnc3n2CC(=O)Nc2ccccc2C(F)(F)F)cc1 -20.2%
COc1ccc(-c2ccc(CCC(=O)O)n2CC(=O)Nc2cccc(C(F)(F)F)c2)cc1 -26.2%
COc1ccc(N2CCN(C(=O)c3ccc4c(Cl)c5c(nc4c3)CCCC5)CC2)cc1 -3.83%
CCOC(=O)c1c(NC(C)=O)c2c3c(sc2n1Cc1nc(-c2cccc(C)c2)oc1C)CCCC3 -11.3%
CCOc1ccc(-c2cc(C(=O)NCCc3ccc(Cl)cc3)c3ccccc3n2)cc1 -15.6%
COc1cc(-c2cc(OC)c3c(C)oc(C)c3c(=O)c2)ccc1OC(=O)c1ccccc1F 2.27%
COc1ccccc1C(=O)NC1=NC(c2ccc(Br)cc2)CC(=O)N1 (configuration not stated) 47.7%
OCCCc1nc2n(n1)C(c1cccc(Cl)c1)C=C(c1ccccc1)N2 (configuration not stated) -25%
COc1ccccc1-c1nc(CNC(=O)Nc2ccccc2)c(C)o1 0%
O=[N+]([O-])c1cc(-c2nc(-c3ccccc3)no2)ccc1NC1CCCC1 -27%
COc1ccc(CN2C(=O)N(c3ccc(C)cc3)C(=O)C2CC(=O)Nc2ccccc2)cc1OC (configuration not stated) -0.823%
CCCCCCNC(=O)n1cc(F)c(=O)[nH]c1=O
O=C1CCCc2[nH]c(=O)c(-c3nc(-c4cccc([N+](=O)[O-])c4)cs3)cc21 -6.84%
COc1ccc(-c2nc(CNC(=O)NC3CCCCC3)c(C)o2)c(OC)c1 -6.33%
CCOC(=O)c1cc2c(=O)n3ccccc3nc2n(Cc2ccco2)c1=NC(=O)c1ccc(F)cc1 -14.2%
O=C(CCCn1c(=O)[nH]c2ccccc2c1=O)N1CCN(c2ccccc2)CC1 -8.13%
O=S(=O)(NCCc1cn2ccsc2n1)c1ccc(Cl)cc1 -6.27%
O=C(CN1C(=O)COc2ccc(S(=O)(=O)N3CCOCC3)cc21)N1CCN(c2ccc(Cl)cc2)CC1 -6.95%
CCCCCCc1cc2cc(-c3cn4c(n3)sc3cc(OC)ccc34)c(=O)oc2cc1O -14.9%
COc1cc(OC)c(NC(=O)Cn2cnc3c(nc4n3CCCCC4)c2=O)cc1Cl -11.6% [at 11.5 µM]
CCN(CCCNC(=O)Cn1ncc2c3ccccc3n(C)c2c1=O)c1cccc(C)c1 18.4%
Cc1cc(OCC(=O)Nc2nc3c(s2)CCCC3)cc(C)c1Cl 1.39%
CCOC(=O)c1ccccc1NC(=O)COc1cc(=O)n(CC)c2ccccc12 -15.6%
COc1ccc(Cl)cc1NC(=O)c1sc2nc3c(cc2c1N)CN(C)CC3 -7.09%
